{
  "source": "a collection of fitness landscapes (doi:10.1016/j.celrep.2020.107928)",
  "parents": {"B1": {"name": "Caulobacter ParB omega fusion; a variant is named by its letters at X, in order, B8GW30 (parent)", "chain": "MESVVVGEPGMSEGRRGLGRGLSALLGEVDAAPAQAPGEQLGGSREAPIEILQRNPDQPRRTFREEDLEDLSNSIREKGVLQPILVRPSPDTAGEYQIVAGERAWRAAQRAGLKTVPIMVRELDDLAVLEIGIIENVQRADLNVLEEALSYKVLMEKFERTQENIAQTIGKSXSHVANXMRLLXLPDEVQSYLVSGELTAXHARAIAAAADPVALAKQIIEGGLSVRETEALARKAPNLSAGKSKGGRPPRVKDTDTQALESDLSSVLGLDVSIDHRGSTGTLTITYATLEQLDDLCNRLTRGI"}},
  "note": "Over roughly 81,000 sequences, “one-hybrid fitness for binding parS DNA” has its median near -0.17; the highest 2% begin near 0.51. The list shows a part of the results.",
  "data": [
    {"variants_of": "B1", "experiment": "one-hybrid fitness for binding parS DNA (scaled: cognate 1, non-cognate 0); higher = stronger binding", "settings": "with parS DNA site", "in_short": "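The reporter was HIS3, with the binding site 19 bp from the promoter, in E. coli USO used for bacterial one-hybrid selection of Caulobacter ParB libraries with four specificity codons randomised. Growth was on M9 lacking histidine, with 0.1 mM IPTG and 5 mM 3-AT, for 48 hours at 37°C. Illumina sequencing covered plasmids before and after selection; three replicate libraries were pooled and variants with under 10 reads dropped. A fitness score is the log change in variant-to-wild-type read ratio, rescaled to the cognate and non-cognate references.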", "values": [
      {"variant": "KSLT", "one-hybrid fitness for binding parS DNA": "≤ 0.2"},
      {"variant": "GGDS", "one-hybrid fitness for binding parS DNA": "≤ 0.2"},
      {"variant": "VMPY", "one-hybrid fitness for binding parS DNA": "≤ 0.2"},
      {"variant": "RMQR", "one-hybrid fitness for binding parS DNA": 0.223},
      {"variant": "NEGS", "one-hybrid fitness for binding parS DNA": "≤ 0.2"},
      {"variant": "YLTG", "one-hybrid fitness for binding parS DNA": "≤ 0.2"},
      {"variant": "PRHH", "one-hybrid fitness for binding parS DNA": "≤ 0.2"},
      {"variant": "LHEP", "one-hybrid fitness for binding parS DNA": "≤ 0.2"},
      {"variant": "GSPA", "one-hybrid fitness for binding parS DNA": "≤ 0.2"},
      {"variant": "RFAL", "one-hybrid fitness for binding parS DNA": "≤ 0.2"},
      {"variant": "RWHI", "one-hybrid fitness for binding parS DNA": "≤ 0.2"},
      {"variant": "YRTY", "one-hybrid fitness for binding parS DNA": "≤ 0.2"},
      {"variant": "KRKH", "one-hybrid fitness for binding parS DNA": "≤ 0.2"},
      {"variant": "WCVC", "one-hybrid fitness for binding parS DNA": "≤ 0.2"},
      {"variant": "KTHR", "one-hybrid fitness for binding parS DNA": "≤ 0.2"},
      {"variant": "QLQP", "one-hybrid fitness for binding parS DNA": "≤ 0.2"},
      {"variant": "YKHV", "one-hybrid fitness for binding parS DNA": "≤ 0.2"},
      {"variant": "KERC", "one-hybrid fitness for binding parS DNA": "≤ 0.2"},
      {"variant": "IHRF", "one-hybrid fitness for binding parS DNA": "≤ 0.2"},
      {"variant": "HQPF", "one-hybrid fitness for binding parS DNA": "≤ 0.2"},
      {"variant": "SNTN", "one-hybrid fitness for binding parS DNA": "≤ 0.2"},
      {"variant": "TYKC", "one-hybrid fitness for binding parS DNA": "≤ 0.2"},
      {"variant": "WYVY", "one-hybrid fitness for binding parS DNA": "≤ 0.2"},
      {"variant": "SAIR", "one-hybrid fitness for binding parS DNA": "≤ 0.2"},
      {"variant": "NFHV", "one-hybrid fitness for binding parS DNA": "≤ 0.2"},
      {"variant": "ACPE", "one-hybrid fitness for binding parS DNA": "≤ 0.2"},
      {"variant": "QAED", "one-hybrid fitness for binding parS DNA": "≤ 0.2"},
      {"variant": "NPDG", "one-hybrid fitness for binding parS DNA": "≤ 0.2"},
      {"variant": "QEHT", "one-hybrid fitness for binding parS DNA": "≤ 0.2"},
      {"variant": "GSTV", "one-hybrid fitness for binding parS DNA": "≤ 0.2"},
      {"variant": "RNFE", "one-hybrid fitness for binding parS DNA": "≤ 0.2"},
      {"variant": "VPRR", "one-hybrid fitness for binding parS DNA": "≤ 0.2"},
      {"variant": "IVTF", "one-hybrid fitness for binding parS DNA": "≤ 0.2"},
      {"variant": "MNLD", "one-hybrid fitness for binding parS DNA": "≤ 0.2"},
      {"variant": "QHRY", "one-hybrid fitness for binding parS DNA": "≤ 0.2"},
      {"variant": "AHQE", "one-hybrid fitness for binding parS DNA": "≤ 0.2"},
      {"variant": "FYDT", "one-hybrid fitness for binding parS DNA": "≤ 0.2"},
      {"variant": "QSSM", "one-hybrid fitness for binding parS DNA": "≤ 0.2"},
      {"variant": "HKKK", "one-hybrid fitness for binding parS DNA": "≤ 0.2"},
      {"variant": "HTCK", "one-hybrid fitness for binding parS DNA": "≤ 0.2"},
      {"variant": "DPFC", "one-hybrid fitness for binding parS DNA": 0.246},
      {"variant": "GSQT", "one-hybrid fitness for binding parS DNA": "≤ 0.2"},
      {"variant": "DKTK", "one-hybrid fitness for binding parS DNA": "≤ 0.2"},
      {"variant": "SNVI", "one-hybrid fitness for binding parS DNA": "≤ 0.2"},
      {"variant": "YRSA", "one-hybrid fitness for binding parS DNA": "≤ 0.2"},
      {"variant": "QMCF", "one-hybrid fitness for binding parS DNA": "≤ 0.2"},
      {"variant": "SSSK", "one-hybrid fitness for binding parS DNA": "≤ 0.2"},
      {"variant": "RRDR", "one-hybrid fitness for binding parS DNA": "≤ 0.2"},
      {"variant": "CVVC", "one-hybrid fitness for binding parS DNA": "≤ 0.2"},
      {"variant": "GYRM", "one-hybrid fitness for binding parS DNA": "≤ 0.2"},
      {"variant": "KEDG", "one-hybrid fitness for binding parS DNA": "≤ 0.2"},
      {"variant": "RFME", "one-hybrid fitness for binding parS DNA": "≤ 0.2"},
      {"variant": "TYHN", "one-hybrid fitness for binding parS DNA": "≤ 0.2"},
      {"variant": "HPDI", "one-hybrid fitness for binding parS DNA": "≤ 0.2"},
      {"variant": "DYNW", "one-hybrid fitness for binding parS DNA": "≤ 0.2"},
      {"variant": "DTRS", "one-hybrid fitness for binding parS DNA": "≤ 0.2"},
      {"variant": "TMNR", "one-hybrid fitness for binding parS DNA": "≤ 0.2"},
      {"variant": "CVCL", "one-hybrid fitness for binding parS DNA": "≤ 0.2"},
      {"variant": "LRRF", "one-hybrid fitness for binding parS DNA": "≤ 0.2"},
      {"variant": "QQTR", "one-hybrid fitness for binding parS DNA": "≤ 0.2"},
      {"variant": "SLMH", "one-hybrid fitness for binding parS DNA": "≤ 0.2"},
      {"variant": "TWPF", "one-hybrid fitness for binding parS DNA": "≤ 0.2"},
      {"variant": "NDTR", "one-hybrid fitness for binding parS DNA": "≤ 0.2"},
      {"variant": "KVWC", "one-hybrid fitness for binding parS DNA": "≤ 0.2"},
      {"variant": "CARY", "one-hybrid fitness for binding parS DNA": "≤ 0.2"},
      {"variant": "TTLR", "one-hybrid fitness for binding parS DNA": "≤ 0.2"},
      {"variant": "WVRG", "one-hybrid fitness for binding parS DNA": "≤ 0.2"},
      {"variant": "QHAT", "one-hybrid fitness for binding parS DNA": "≤ 0.2"},
      {"variant": "SNVD", "one-hybrid fitness for binding parS DNA": "≤ 0.2"},
      {"variant": "FKSA", "one-hybrid fitness for binding parS DNA": "≤ 0.2"},
      {"variant": "TIMT", "one-hybrid fitness for binding parS DNA": "≤ 0.2"},
      {"variant": "YFTD", "one-hybrid fitness for binding parS DNA": "≤ 0.2"},
      {"variant": "WGFC", "one-hybrid fitness for binding parS DNA": "≤ 0.2"},
      {"variant": "PELS", "one-hybrid fitness for binding parS DNA": "≤ 0.2"},
      {"variant": "GKNT", "one-hybrid fitness for binding parS DNA": "≤ 0.2"},
      {"variant": "QMAS", "one-hybrid fitness for binding parS DNA": "≤ 0.2"},
      {"variant": "VHVL", "one-hybrid fitness for binding parS DNA": "≤ 0.2"},
      {"variant": "QQLW", "one-hybrid fitness for binding parS DNA": "≤ 0.2"},
      {"variant": "GLKC", "one-hybrid fitness for binding parS DNA": "≤ 0.2"},
      {"variant": "HAEG", "one-hybrid fitness for binding parS DNA": "≤ 0.2"},
      {"variant": "GMRF", "one-hybrid fitness for binding parS DNA": "≤ 0.2"},
      {"variant": "PSHN", "one-hybrid fitness for binding parS DNA": "≤ 0.2"},
      {"variant": "CKLG", "one-hybrid fitness for binding parS DNA": "≤ 0.2"},
      {"variant": "FPCG", "one-hybrid fitness for binding parS DNA": "≤ 0.2"}
    ]}
  ]
}
